Assay results: PubChem BioAssay (Tox21)
Several values for one entry are separate records, joined by “and”; a condition that tells them apart may be missing. Equal values may be shown once. Inconclusive results, whose numbers are uncertain, are shown with a selection of clear calls. For some assays here: Potencies of inconclusive entries are doubtful fits and often do not repeat. Activity calls are given as the source filed them. Unless noted, calls come from the whole dose curve.
Tags give direction and shape of the fitted curve or compound fluorescence and quenching.

System: not listed separately
Experiment: qHTS assay to identify small molecule agonists of the estrogen receptor beta (ER-beta) signaling pathway - cell viability counter screen (AID 1259380; active = well fitted curve in the direction sought with a large enough effect in the repeat runs; inconclusive = weak or mixed curves; inactive = no such curve, though single readings can be large; an effect the other way counts as inactive or inconclusive; note: nearly all actives have a fitted effect of over 30% in size; note: potency is the fitted concentration of half-maximal effect; for activity change, negative = cytotoxicity: % is set by controls: 0 for no effect and ±100 for the full control effect)
Details: ER-beta-bla HEK293T viability, CellTiter-Glo luminescence, 16 h; series mostly up to 92.4 µM; activity change, negative = cytotoxicity: at the top concentration
Summary of the method: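 Luminescence read-out (CellTiter-Glo, 30 min, room temp) taken in the same wells as the beta-lactamase reporter assay; ER-beta-UAS-bla HEK293T cells exposed to DMSO-dissolved compounds for 16 hr at 37C in 2% charcoal-stripped FBS medium.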
For `COCC(C)OC(C)=O` (stereo not given), the “activity change, negative = cytotoxicity” value was inactive: 2.97%. In the case of `O=C1Nc2ccccc2C1=O`, the Potency is reported as inconclusive: 76.3 µM [cytotoxic, single point]. In the case of `Cc1ccc(O)c([N+](=O)[O-])c1`, the Potency is reported as inconclusive: 55.1 µM [cytotoxic, partial curve]. In the case of `O=C1C(N(CO)C(=O)NCO)N(CO)C(=O)N1CO` (stereo not given), the Potency is reported as inconclusive: 68.5 µM [rising, single point]. In the case of `C=CC(C)(O)CC/C=C(\C)CC` (stereo not given), the “activity change, negative = cytotoxicity” value is reported as inactive: 0.97%. With `Nc1ccc(C(=O)N2CC3CC(CN(Cc4ccccc4)C3)C2)cc1` the Potency was inconclusive: 16.8 µM [cytotoxic, partial curve].

Target: Thyrotropin receptor (Homo sapiens) (UniProt P16473)
Sequence of UniProt P16473 (P16473 whole entry, looked up): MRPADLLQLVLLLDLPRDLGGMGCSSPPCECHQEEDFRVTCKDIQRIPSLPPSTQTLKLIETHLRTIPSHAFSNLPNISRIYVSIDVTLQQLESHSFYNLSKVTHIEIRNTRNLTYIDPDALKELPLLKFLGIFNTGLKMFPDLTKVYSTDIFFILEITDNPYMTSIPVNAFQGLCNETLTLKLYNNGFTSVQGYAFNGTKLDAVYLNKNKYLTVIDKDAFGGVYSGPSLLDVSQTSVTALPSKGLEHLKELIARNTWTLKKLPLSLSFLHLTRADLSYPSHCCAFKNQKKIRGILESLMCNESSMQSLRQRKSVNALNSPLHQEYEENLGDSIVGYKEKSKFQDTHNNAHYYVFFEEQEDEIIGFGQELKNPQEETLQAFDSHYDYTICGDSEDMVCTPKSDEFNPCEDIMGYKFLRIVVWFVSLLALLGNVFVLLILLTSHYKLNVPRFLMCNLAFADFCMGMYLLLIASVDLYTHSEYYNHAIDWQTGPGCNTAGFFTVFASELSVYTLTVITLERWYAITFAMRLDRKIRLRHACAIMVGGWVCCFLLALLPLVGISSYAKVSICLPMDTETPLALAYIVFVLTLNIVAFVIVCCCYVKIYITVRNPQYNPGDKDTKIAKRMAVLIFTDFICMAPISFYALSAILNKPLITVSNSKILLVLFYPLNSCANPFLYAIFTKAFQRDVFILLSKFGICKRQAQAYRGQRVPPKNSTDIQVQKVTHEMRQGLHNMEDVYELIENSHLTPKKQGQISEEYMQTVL
Experiment: qHTS assay to identify small molecule antagonists of the thyroid stimulating hormone receptor (TSHR) signaling pathway (AID 1259385); note: % is set by controls: 0 for no effect and ±100 for the full control effect; nearly all actives have a fitted effect of over 20% in size
Details: TSHR-HEK293 cAMP HTRF, TSH-stimulated antagonist mode; activity change, negative = inhibition: at 92.4 µM (top of the series) unless noted
Summary of the method: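 Antagonist mode: compound-treated TSHR-expressing HEK293 cells were stimulated with 1.5 ng/mL TSH (final) in presence of Ro20-1724 for 30 min at RT. HTRF cAMP detection after 1 h; each compound tested at 15 concentrations, triplicate.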
For `CN(C)CCc1c[nH]c2ccc(CS(=O)(=O)N3CCCC3)cc12`, the “activity change, negative = inhibition” value was inactive: 0.0424% [at 42.5 µM]. With `CC(C)=CCl` the Potency was “inactive”. For `O=Cc1cc2ccccc2o1`, the “activity change, negative = inhibition” value was inactive: 5.64%. In the case of `Cc1ccc(O)c(C(=O)c2ccccc2)c1`, the activity change, negative = inhibition is reported as inconclusive: -9.85%.

Target: Progesterone receptor (Homo sapiens) (UniProt P06401)
Sequence of UniProt P06401 (P06401 whole entry, looked up): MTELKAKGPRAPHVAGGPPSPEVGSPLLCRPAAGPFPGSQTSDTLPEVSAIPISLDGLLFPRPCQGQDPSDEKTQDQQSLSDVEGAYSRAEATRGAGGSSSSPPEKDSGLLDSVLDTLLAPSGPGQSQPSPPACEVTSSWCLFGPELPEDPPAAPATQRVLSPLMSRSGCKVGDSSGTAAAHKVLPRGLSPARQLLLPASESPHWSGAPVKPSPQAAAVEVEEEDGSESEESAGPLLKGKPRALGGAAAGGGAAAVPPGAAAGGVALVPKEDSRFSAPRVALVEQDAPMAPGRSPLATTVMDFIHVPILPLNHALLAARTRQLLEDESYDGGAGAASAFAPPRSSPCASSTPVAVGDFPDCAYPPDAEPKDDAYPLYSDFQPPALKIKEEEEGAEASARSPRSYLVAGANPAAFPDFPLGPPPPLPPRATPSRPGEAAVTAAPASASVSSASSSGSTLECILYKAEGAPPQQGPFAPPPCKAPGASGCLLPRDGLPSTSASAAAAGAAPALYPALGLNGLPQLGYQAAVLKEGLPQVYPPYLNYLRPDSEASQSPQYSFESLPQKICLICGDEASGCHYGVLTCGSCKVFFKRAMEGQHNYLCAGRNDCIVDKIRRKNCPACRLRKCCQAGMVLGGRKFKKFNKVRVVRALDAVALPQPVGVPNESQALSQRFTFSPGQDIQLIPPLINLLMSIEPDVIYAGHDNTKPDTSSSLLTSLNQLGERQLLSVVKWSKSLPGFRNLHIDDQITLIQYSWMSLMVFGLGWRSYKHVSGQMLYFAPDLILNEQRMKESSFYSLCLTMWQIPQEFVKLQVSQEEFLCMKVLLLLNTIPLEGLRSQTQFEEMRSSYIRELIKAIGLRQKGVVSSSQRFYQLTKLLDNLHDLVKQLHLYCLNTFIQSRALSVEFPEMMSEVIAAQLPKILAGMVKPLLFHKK
Experiment: qHTS assay to identify small molecule agonists of the progesterone receptor (PR) signaling pathway (AID 1346784); note: nearly all actives have a fitted effect of over 30% in size; note: potency is the fitted concentration of half-maximal effect; for activation: % is set by controls: 0 for no effect and ±100 for the full control effect
Details: PR-UAS-bla HEK293T, beta-lactamase FRET ratio, 16 h; activation: at 92.4 µM (top of the series) unless noted
Summary of the method: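 Beta-lactamase reporter read-out: after 16 hr compound treatment at 37C and a further 2 hr at room temperature with LiveBLAzer B/G FRET substrate, fluorescence was measured in PR-UAS-bla HEK 293T cells grown in 2% charcoal-stripped serum.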
For `COCC(C)OC(C)=O` (stereo not given), the “activation” value was inactive: -1.36%. With `CCCCCCCCCCOc1cc2c(=O)c(C(=O)OCC)c[nH]c2cc1OCC` the Potency was inconclusive: 1.68 µM [rising, partial curve]. For `CC[N+](C)(CC)CC`, the “activation” value was inactive: -0.147%. In the case of `Cc1ccc(O)c([N+](=O)[O-])c1`, the Potency is reported as inconclusive: 1.96 µM [fluorescent, full curve]. For `O=C(O)C(=O)Nc1cccc(-c2nn[nH]n2)c1`, the “activation” value was inactive: 0.63% [at 42.5 µM]. With `Clc1ccc2c(c1)Nc1ccccc1S2` the Potency was inconclusive: 33.5 µM [falling, single point].

Target: Progesterone receptor (Homo sapiens) (UniProt P06401)
Experiment: qHTS assay to identify small molecule antagonists of the progesterone receptor (PR) signaling pathway (AID 1346795; active = well fitted inhibition curve with a large enough effect in the signal ratio in the repeat runs, not every such curve was filed as active; inconclusive = weak or mixed curves; the % refers to the signal ratio; note: potency is the fitted concentration of half-maximal effect; for activity change, negative = inhibition: % is set by controls: 0 for no effect and ±100 for the full control effect)
Details: PR-UAS-bla HEK293T, beta-lactamase FRET ratio, 16 h; activity change, negative = inhibition: at 92.4 µM (top of the series) unless noted
Summary of the method: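 Read-out is fluorescence from the LiveBLAzer B/G FRET substrate, cleaved by a UAS-controlled beta-lactamase in PR-UAS-bla HEK293T cells after 16 hr exposure to compound plus 1 nM promegestone (final), followed by 2 hr at room temperature.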
For `COCC(C)OC(C)=O` (stereo not given), the Potency was inconclusive: 0.961 µM [falling, single point]. With `O=C1C(N(CO)C(=O)NCO)N(CO)C(=O)N1CO` (stereo not given) the Potency was “inactive”. For `C=CC(C)C#N` (stereo not given), the activity change, negative = inhibition was inconclusive: 6.94%. In the case of `O=C1NC(=O)C(c2ccccc2)(c2ccccc2)N1`, the activity change, negative = inhibition is reported as inconclusive: 4.86% and inconclusive: -28.5%. In the case of `O=C(O)C(=O)Nc1cccc(-c2nn[nH]n2)c1`, the “activity change, negative = inhibition” value is reported as inactive: 7.76% [at 42.5 µM]. With `CC(C)(C)c1nnc(NS(=O)(=O)c2ccc(N)cc2)s1` the “activity change, negative = inhibition” value was inactive: 5.99% [at 42.5 µM]. In the case of `Clc1ccc2c(c1)Nc1ccccc1S2`, the Potency is reported as active: 7.5 µM.

System: not listed separately
Experiment: qHTS assay to identify small molecule antagonists of the progesterone receptor (PR) signaling pathway - cell viability counter screen (AID 1346798; active = well fitted curve in the direction sought with a large enough effect in the repeat runs; inconclusive = weak or mixed curves; inactive = no such curve, though single readings can be large; an effect the other way counts as inactive or inconclusive; note: nearly all actives have a fitted effect of over 50% in size; note: potency is the fitted concentration of half-maximal effect;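 for activity change, negative = cytotoxicity: HEK293T PR-UAS-bla cells stimulated with the agonist R5020; % is set by controls: 0 for no effect and ±100 for the full control effect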)
Details: PR-UAS-bla HEK293T viability, CellTiter-Glo luminescence, 16 h; series mostly up to 92.4 µM; activity change, negative = cytotoxicity: at the top concentration
Summary of the method: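 HEK293T PR-UAS-bla, 2% charcoal-stripped FBS; 4 hr pre-plate; cpd + R5020, 16 h 37C; LiveBLAzer read first; then CellTiter-Glo 30 min RT, luminescence.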
With `CCCCCCCCCOS(=O)(=O)O` the Potency was inconclusive: 2.17 µM [cytotoxic, single point]. For `O=CC1CC=CCC1` (stereo not given), the “activity change, negative = cytotoxicity” value was inactive: -0.117%. For `O=C1Nc2ccccc2C1=O`, the Potency was inconclusive: 1.92 µM [rising, partial curve]. In the case of `Cc1ccc(O)c([N+](=O)[O-])c1`, the Potency is reported as inconclusive: 69.4 µM [cytotoxic, partial curve]. With `O=C(O)C(=O)Nc1cccc(-c2nn[nH]n2)c1` the “activity change, negative = cytotoxicity” value was inactive: 3.52% [at 42.5 µM]. In the case of `CC(C)(C)c1nnc(NS(=O)(=O)c2ccc(N)cc2)s1`, the “activity change, negative = cytotoxicity” value is reported as inactive: 1.95% [at 42.5 µM]. With `C/C=C1\C(=O)C[C@H]2[C@@H]3CCC4=CC(=O)CC[C@]4(C)[C@H]3CC[C@]12C` the Potency was inconclusive: 6.72 µM [rising, partial curve].

System: not listed separately
Experiment: qHTS assay to identify small molecule agonists of the progesterone receptor (PR) signaling pathway - cell viability counter screen (AID 1346799); note: nearly all actives have a fitted effect of over 45% in size; note: potency is the fitted concentration of half-maximal effect
Details: PR-UAS-bla HEK293T viability, CellTiter-Glo luminescence, 16 h; series mostly up to 92.4 µM; activity change, negative = cytotoxicity: at the top concentration
Summary of the method: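 Luminescence from CellTiter-Glo, added after the beta-lactamase FRET read in the same wells, gave cytotoxicity in PR-UAS-bla HEK293T cells treated with compounds for 16 hr at 37C.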
For `CC(C)=CCl`, the Potency was “inactive”. In the case of `CC/C=C\CCCCO`, the “activity change, negative = cytotoxicity” value is reported as inactive: 6.44%. For `CC(C)OC(=O)C(C(=O)OC(C)C)=C1SC=CS1`, the Potency was inconclusive: 0.0094 µM [rising, full curve, poor fit]. For `Cc1ccc(O)c([N+](=O)[O-])c1`, the Potency was active: 24.6 µM. For `CC1=C(C/C=C(\C)CCC[C@H](C)CCC[C@H](C)CCCC(C)C)C(=O)c2ccccc2C1=O`, the “activity change, negative = cytotoxicity” value was inactive: 12.9% [at 42.5 µM]. In the case of `C=CC(C)C#N` (stereo not given), the Potency is reported as inconclusive: 5.45 µM [cytotoxic, single point]. For `NC(=O)c1cn(Cc2c(F)cccc2F)nn1`, the “activity change, negative = cytotoxicity” value was inactive: 0.0471% [at 42.5 µM]. For `Clc1ccc2c(c1)Nc1ccccc1S2`, the “activity change, negative = cytotoxicity” value was inactive: 0% [at 42.5 µM]. With `Nc1ccc(C(=O)N2CC3CC(CN(Cc4ccccc4)C3)C2)cc1` the Potency was inconclusive: 13.3 µM [cytotoxic, single point]. With `C/C=C1\C(=O)C[C@H]2[C@@H]3CCC4=CC(=O)CC[C@]4(C)[C@H]3CC[C@]12C` the Potency was inconclusive: 2.38 µM [rising, full curve].

System: not listed separately
Experiment: qHTS assay to identify small molecule agonists of the TGF-beta/Smad signaling pathway (AID 1346859; active = well fitted activation curve with a large enough effect in the signal ratio in the repeat runs, not every such curve was filed as active; inconclusive = weak or mixed curves; the % refers to the signal ratio; note: potency is the fitted concentration of half-maximal effect)
Details: SBE-bla HEK293T, TGF-beta/Smad beta-lactamase reporter, 5 h; series mostly up to 76.8 µM; activation: at the top concentration
Summary of the method: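 SBE-bla HEK 293T, 4,000 cells/well, plated o/n; cpd in DMSO, 5 hr, 37 C/5% CO2; B/G FRET substrate 2 hr RT; ex 405, em 460/530 nm.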
For `CC(C)=CCl`, the Potency was “inactive”. In the case of `Cc1ccc(O)c(C(=O)c2ccccc2)c1`, the “activation” value is reported as inactive: -5.84%. In the case of `C/C=C1\C(=O)C[C@H]2[C@@H]3CCC4=CC(=O)CC[C@]4(C)[C@H]3CC[C@]12C`, the Potency is reported as inconclusive: 19.1 µM [rising, partial curve, poor fit].

System: not listed separately
Experiment: qHTS assay to identify small molecule antagonists of the TGF-beta/Smad signaling pathway (AID 1346924; active = well fitted inhibition curve with a large enough effect in the signal ratio in the repeat runs, not every such curve was filed as active; inconclusive = weak or mixed curves; the % refers to the signal ratio; note: potency is the fitted concentration of half-maximal effect)
Details: SBE-bla HEK293T, TGF-beta/Smad reporter, beta-lactamase ratio; activity, negative = inhibition: at 76.8 µM (top of the series) unless noted
Summary of the method: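 Read-out was FRET-substrate fluorescence (405 nm excitation; 460 and 530 nm emission) after 2 h at room temperature. Before that, cells carrying a Smad-binding-element beta-lactamase reporter in HEK 293T had been stimulated 5 h at 37 C with TGF-beta1 (0.25 ng/mL addition solution) in the presence of test compound.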
For `CCCCCCCCCCOc1cc2c(=O)c(C(=O)OCC)c[nH]c2cc1OCC`, the activity, negative = inhibition was inconclusive: 0.981% [at 6.97 µM]. For `Cc1ccc(O)c(C(=O)c2ccccc2)c1`, the activity, negative = inhibition was inconclusive: -0.251%. For `Nc1ccc(C(=O)N2CC3CC(CN(Cc4ccccc4)C3)C2)cc1`, the activity, negative = inhibition was inconclusive: -10.7% [at 35.3 µM]. In the case of `C/C=C1\C(=O)C[C@H]2[C@@H]3CCC4=CC(=O)CC[C@]4(C)[C@H]3CC[C@]12C`, the Potency is reported as inconclusive: 24.1 µM [rising, partial curve, poor fit].

System: not listed separately
Experiment: Caspase-3/7 induction in CHO-K1 cells by small molecules, qHTS cell viability counter screen (AID 1346979; active = well fitted curve in the direction sought with a large enough effect in the repeat runs; inconclusive = weak or mixed curves; inactive = no such curve, though single readings can be large; an effect the other way counts as inactive or inconclusive; note: nearly all actives have a fitted effect of over 35% in size; note: potency is the fitted concentration of half-maximal effect)
Details: CellTiter-Fluor fluorescence, 17 h; series mostly up to 92.4 µM; activity change, negative = cytotoxicity: at the top concentration
Summary of the method: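 Cells (CHO-K1, wild type) are plated at 1,500 per well and incubated 5hr. Test compounds in DMSO are then pinned in, followed by 16hr at 37C and 5% CO2. Viability is read by CellTiter-Fluor fluorescence after 1hr.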
In the case of `O=C1NC(=O)C(c2ccccc2)(c2ccccc2)N1`, the Potency is reported as “inactive”. In the case of `COC(=O)c1ccc(C=O)cc1`, the Potency is reported as inconclusive: 17.2 µM [rising, partial curve, poor fit]. In the case of `CC(C)(C)c1cc(CCC(=O)NCCCCCCNC(=O)CCc2cc(C(C)(C)C)c(O)c(C(C)(C)C)c2)cc(C(C)(C)C)c1O`, the “activity change, negative = cytotoxicity” value is reported as inactive: -1.74%.
